# Reference: the RNAGym collection of RNA variant scans (doi:10.1093/nar/gkz1192)
# Read counts are not given, so values of variants with three or more changes are uncertain.
# B1: CPEB3 Ribozyme (parent)
# chain: UAACAGGGGGCCACAGCAGAAGCGUUCACGUCGCAGCCCCUGUCAGAUUCUGGUGAAUCUGCGAAUUCUGCUGUAUAUCUC
# Variants of: B1
# Assay: self-cleavage, relative activity (ratio to wild type); higher = more cleavage; in vitro, sequencing
# In short: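 Barcoded CPEB3 ribozyme mutants, produced by rounds of error-prone PCR, self-cleaved while being transcribed with T7 RNA polymerase for 5 hours at 37°C and during a subsequent 15 min DNase I step before EDTA was added. Sequencing of template-switched cDNA on Illumina gave cleaved and total reads, and DNA sequencing assigned barcodes to variants. Each variant's relative activity is its cleaved/total read fraction divided by the unmutated ribozyme's fraction, averaged across three batches. A variant needed a minimum of 5 reads.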
row,Variant,self-cleavage
1,UAACAGGGGGCCACAGCAGAAGCGUUCACGUCGCAGCCCCUGUCAGAUUCUGGGGAAUCAGUGAAUUCUGCUGUAUAUCUC,0.09
2,UAACAGGGGGCCACAGCAGAAGCGUUCACGUCGCAGCCCCUGUCAGAUUCUGGGGAAUCCGCGAACUCUGCUGUAUAUCUC,0.24
3,UAACAGGGGGCCACAGCAGAAGCGUUCACGUCGCAGCCCCUGUCAGAUUCUGGGGAAUCCGCGAAUUCAGCCGUAUAUCUC,0.19
4,UAACAGGGGGCCACAGCAGAAGCGUUCACGUCGCAGCCCCUGUCAGAUUCUGGGGAAUCUGCGAACUCUGCUGUAUACCUC,0.21
5,UAACAGGGGGCCACAGCAGAAGCGUUCACGUCGCAGCCCCUGUCAGAUUCUGGGGAAUCUGCGAAUUCUGCAGUAUAGCUC,1.01
6,UAACAGGGGGCCACAGCAGAAGCGUUCACGUCGCAGCCCCUGUCAGAUUCUGGUCAAUCUGCGGAUUAUGCUGUAUAUCUC,0.14
7,UAACAGGGGGCCACAGCAGAAGCGUUCACGUCGCAGCCCCUGUCAGAUUCUGGUCAAUCUACGAAUUCUGCUGUACAUCUC,0.17
8,UAACAGGGGGCCACAGCAGAAGCGUUCACGUCGCAGCCCCUGUCAGAUUCUGGUCAAUCCGCGAAUUCUGCUCUAUAUCUC,0.31
9,UAACAGGGGGCCACAGCAGAAGCGUUCACGUCGCAGCCCCUGUCAGAUUCUGGUUAUUCUGUGAGUUCUGCUGUAUAUCUC,0.12
10,UAACAGGGGGCCACAGCAGAAGCGUUCACGUCGCAGCCCCUGUCAGAUUCUGGUUAAUCUGCGGACUCUGCUGUAUAUCUC,0.19
11,UAACAGGGGGCCACAGCAGAAGCGUUCACGUCGCAGCCCCUGUCAGAUUCUGGUUAAUGCGCGAAUUCUGCUGUUUAUCUC,0.17
12,UAACAGGGGGCCACAGCAGAAGCGUUCACGUCGCAGCCCCUGUCAGAUUCUGGUUAAUCUGCGAAUUCUGCUCUAUGUCUC,1.19
13,UAACAGGGGGCCACAGCAGAAGCGUUCACGUCGCAGCCCCUGUCAGAUUCUGGUUAAUCUGCGAAUUCGGCUGUAUACCUC,0.68
14,UAACAGGGGGCCACAGCAGAAGCGUUCACGUCGCAGCCCCUGUCAGAUUCUGGUUAAUCUGCGAAUUCUGCUGCGUAUCUC,1.07
15,UAACAGGGGGCCACAGCAGAAGCGUUCACGUCGCAGCCCCUGUCAGAUUCUGGUUAAUCUGCGAAUUCUGCUGUACGUCUC,1.03
16,UAACAGGGGGCCACAGCAGAAGCGUUCACGUCGCAGCCCCUGUCAGAUUCUGGUGCGUCCGCGAAUUCUGCUGUAUAUCUC,0.19
17,UAACAGGGGGCCACAGCAGAAGCGUUCACGUCGCAGCCCCUGUCAGAUUCUGGUGCAUCUGCGAAUUCUGCUGUAUGCCUC,0.4

row,Variant,self-cleavage
1,UAACAGGGGGCCACAGCAGAAGCGUUCACGUCGCAGCCCCUGUCAGAUUCUGGUGCAUCUGCGAAUACUGGUGUAUAUCUC,0.13
2,UAACAGGGGGCCACAGCAGAAGCGUUCACGUCGCAGCCCCUGUCAGAUUCUGGUGGGUCUGCGGAUUCUGCUGUAUAUCAC,0.35
3,UAACAGGGGGCCACAGCAGAAGCGUUCACGUCGCAGCCCCUGUCAGAUUCUGGUGGGUCUGCGUAUUCUGCCGUAUAUUUC,0.22
4,UAACAGGGGGCCACAGCAGAAGCGUUCACGUCGCAGCCCCUGUCAGAUUCUGGUGGGUCUGCGAAUUCCGCUGUAUAUCUC,0.37
5,UAACAGGGGGCCACAGCAGAAGCGUUCACGUCGCAGCCCCUGUCAGAUUCUGGUGGGUCUGCGAAUUCUGCUGCAUAUCUC,0.5
6,UAACAGGGGGCCACAGCAGAAGCGUUCACGUCGCAGCCCCUGUCAGAUUCUGGUGGUUCUGCGAAUUCUGCUGCAUAUCUC,0.43
7,UAACAGGGGGCCACAGCAGAAGCGUUCACGUCGCAGCCCCUGUCAGAUUCUGGUGGAUCUGCGGAUUCUACUGUAUAUCUC,0.48
8,UAACAGGGGGCCACAGCAGAAGCGUUCACGUCGCAGCCCCUGUCAGAUUCUGGUGGAUCUGCGGAUUCAGCUGUAUAUCUC,0.41
9,UAACAGGGGGCCACAGCAGAAGCGUUCACGUCGCAGCCCCUGUCAGAUUCUGGUGGAUCUGCGGAUUCCGCUGUUUAUCUC,0.6
10,UAACAGGGGGCCACAGCAGAAGCGUUCACGUCGCAGCCCCUGUCAGAUUCUGGUGGAUCUGCGGAUUCUGCAGUAUAUCUC,0.47
11,UAACAGGGGGCCACAGCAGAAGCGUUCACGUCGCAGCCCCUGUCAGAUUCUGGUGGAUCUGCGGAUUCUGCUGUAAAUCUC,0.94
12,UAACAGGGGGCCACAGCAGAAGCGUUCACGUCGCAGCCCCUGUCAGAUUCUGGUGGAUCUGCGGAUUCUGCUGUACAUCUC,0.94
13,UAACAGGGGGCCACAGCAGAAGCGUUCACGUCGCAGCCCCUGUCAGAUUCUGGUGGAUCUGCGUAUUCUGCUGUGUACCUC,0.39
14,UAACAGGGGGCCACAGCAGAAGCGUUCACGUCGCAGCCCCUGUCAGAUUCUGGUGGAUCUGCGUAUUCCGCAGUAUAUCUC,0.44
15,UAACAGGGGGCCACAGCAGAAGCGUUCACGUCGCAGCCCCUGUCAGAUUCUGGUGGAUCUGCGAGUUAUGCUGUAUAUCUC,0.48
16,UAACAGGGGGCCACAGCAGAAGCGUUCACGUCGCAGCCCCUGUCAGAUUCUGGUGGAUCUGCGAGUCCUGCUGUGUAUCAC,0.12
17,UAACAGGGGGCCACAGCAGAAGCGUUCACGUCGCAGCCCCUGUCAGAUUCUGGUGGAUCUGCGAUCACUGCUGUAUAUCAC,0.22
